About 120 (0.75%) of roughly 16,000 compounds were called active. Not shown: some 4% with an inconclusive outcome. Calls come from the whole dose curve; as a rule, active = well fitted inhibition curve with a large enough effect; inconclusive = small, poorly fitted or top-dose-only effect; inactive = no such curve, though single readings can be large or run the other way. The list shows a part of the results. Where a SMILES comes first, the peptide text is derived from it. Bridges are numbered along the chain shown (N, C = ends). [ ]: non-standard residue; d: D form. The star is where a group is joined. X4 = CC[C@H](C)CCCCC(=O)*; Dab = NCC[C@H](N)C(=O)O
Molecular target: Rap guanine nucleotide exchange factor 3 (Homo sapiens) (UniProt O95398)
Sequence of UniProt O95398 (O95398 whole entry, looked up): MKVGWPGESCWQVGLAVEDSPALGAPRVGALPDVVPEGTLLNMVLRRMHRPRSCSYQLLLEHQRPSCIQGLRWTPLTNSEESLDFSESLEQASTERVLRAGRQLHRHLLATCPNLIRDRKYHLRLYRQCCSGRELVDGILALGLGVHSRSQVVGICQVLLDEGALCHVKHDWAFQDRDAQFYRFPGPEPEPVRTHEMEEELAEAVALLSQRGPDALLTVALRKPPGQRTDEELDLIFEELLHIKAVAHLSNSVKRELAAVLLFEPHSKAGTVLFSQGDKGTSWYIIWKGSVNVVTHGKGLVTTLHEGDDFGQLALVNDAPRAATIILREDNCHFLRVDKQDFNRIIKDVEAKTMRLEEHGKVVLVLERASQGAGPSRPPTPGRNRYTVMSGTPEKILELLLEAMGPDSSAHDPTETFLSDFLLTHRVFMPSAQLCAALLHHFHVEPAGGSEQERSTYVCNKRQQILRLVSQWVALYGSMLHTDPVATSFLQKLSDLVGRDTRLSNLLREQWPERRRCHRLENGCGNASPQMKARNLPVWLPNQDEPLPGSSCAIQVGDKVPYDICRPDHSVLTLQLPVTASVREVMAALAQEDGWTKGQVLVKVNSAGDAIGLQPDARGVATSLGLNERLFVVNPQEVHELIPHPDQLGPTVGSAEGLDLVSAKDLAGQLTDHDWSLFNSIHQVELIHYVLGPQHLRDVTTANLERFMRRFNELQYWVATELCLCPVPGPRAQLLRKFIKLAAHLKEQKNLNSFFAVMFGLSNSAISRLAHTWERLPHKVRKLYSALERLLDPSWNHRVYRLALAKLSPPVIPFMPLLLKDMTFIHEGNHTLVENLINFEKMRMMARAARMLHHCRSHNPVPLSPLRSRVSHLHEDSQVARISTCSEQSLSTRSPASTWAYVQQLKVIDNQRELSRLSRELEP
Experiment: Validation qHTS for antagonist of cAMP-regulated guanine nucleotide exchange factor 3 (EPAC1);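 note: plate controls were DMSO for no effect and ATA control for full effect; nearly all actives have a fitted effect of over 75% in size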
Conditions: EPAC1 Rap1B-BODIPY-GDP exchange, fluorescence; series mostly up to 150 µM; activity change, negative = inhibition: at the top concentration
Method in brief: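 EPAC1 (100 nM) mixed with 250 nM RAP1B-BODIPY-GDP and 50 uM GDP; compounds in concentration series, 5 min at room temperature. Fluorescence (ex 480/em 540 nm) read every 5 min for 30 min; normalized to ATA control and DMSO.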

Activity change, negative = inhibition, inactive:
COc1cccc(-c2ccc3ncnc(NCc4cnc(C)cn4)c3c2)c1 0.674%
Fc1ccc(Nc2ncnc3ccc(-c4ccoc4)cc23)cc1 0.533%
Cc1nc2n(c(=O)c1CCN1CCC(c3noc4cc(F)ccc34)CC1)CCCC2 6.32%
CNCCC(Oc1ccc(C(F)(F)F)cc1)c1ccccc1 (stereo not given)
Cc1noc(C)c1-c1nc(NCc2ccccc2)c2ccccc2n1 16.1%
C[C@@H](CN1CC(=O)NC(=O)C1)N1CC(=O)NC(=O)C1 0.914%
O=c1c(-c2ccc(F)cc2)nc2cnc(N3CCOCC3)nc2n1Cc1cccs1 -2.92%
CC(=O)Nc1ccc(CC(=O)O)cc1 6.37%
FC(F)(F)c1ccccc1-c1nc(Nc2ccncc2)c2ccccc2n1 27.1%
O=c1c(-c2cccc(Cl)c2)nc2cncnc2n1C1CC1 18.8%
COCC(=O)N1CCC2(CC1)CN(C(=O)Nc1cccc(F)c1)C2 6.95%
O=C(O)Cc1sc(-c2ccccc2)nc1-c1ccc(Cl)cc1
CC(=O)OCC(=O)[C@@]12N=C(C)O[C@@H]1C[C@H]1[C@@H]3CCC4=CC(=O)C=C[C@]4(C)[C@H]3[C@@H](O)C[C@@]12C 12.7%
C#CCN1C(C)=C(C(=O)OC)C(c2cccc([N+](=O)[O-])c2)C(C(=O)OCC)=C1C (stereo not given) -2.34% [at 75.8 µM]
COc1ccc(C(=O)/C=C/c2ccccc2)cc1 -2.07%
OCc1cc(C(O)CNCCCCCCOCCCCc2ccccc2)ccc1O (stereo not given)
COc1ccc(-c2nc3cnc(Oc4cccc(Cl)c4)nc3n(CCC#N)c2=O)cc1 9.1%
C[C@@](N)(C(=O)O)c1cccc(CC(=O)O)c1 -10.6%
CN(C(=O)c1cnn(-c2ncc3c(n2)-c2ccccc2CCC3)c1C1CC1)C1CCOC1 (stereo not given) 16.2%
O=C(C[N+]1(CCc2ccccc2)CCOCC1)c1cccc([N+](=O)[O-])c1 19.1%
Cc1csc(-c2nc3ccccc3n2C)n1 -17.2%
COc1ccc(CN2CCCC(c3nc(-c4ccncc4)ncc3-c3ccccc3C)C2)c(OC)c1 (stereo not given) -6.69%
FC(F)(F)c1ccccc1-c1cc(NCCN2CCOCC2)ncn1 -0.311%
CC[C@H](C)CCCCC(=O)N[C@@H](CCN)C(=O)N[C@H](C(=O)N[C@@H](CCN)C(=O)N[C@H]1CCNC(=O)[C@H]([C@@H](C)O)NC(=O)[C@H](CCN)NC(=O)[C@H](CCN)NC(=O)[C@H](CC(C)C)NC(=O)[C@@H](CC(C)C)NC(=O)[C@H](CCN)NC1=O)[C@@H](C)O (X4-[Dab]T[Dab][Dab][Dab][dL]L[Dab][Dab]T; lactam 4-C) 16%
COc1cc(-c2cc(C)c3c(OC)ccc(OC)c3n2)cc2c1OCCN(C(=O)Cn1nc(C)cc1C)C2 21.2%

Reference: PubChem BioAssay AID1645882 (National Center for Advancing Translational Sciences (NCATS), 2021)
